Data reported in PubChem BioAssay AID1362 (SRMLSC, 2008).
The list shows a part of the results. These are further read-outs of the screen, such as a control signal, another cell line or another target. No call is given for them. The list favours compounds with an active or inconclusive main result.

Assay: growth inhibition of WT strain, primary screen, mitochondrial fusion inhibitor project, WT and mutant strains, chemical genetic (AID 1362); note: tested in S. cerevisiae
Details: mitochondrial fusion phenotypic screen, at 10 µM

Compound	inhibition
COc1cc(/C=N/N(C)c2ccccc2)cc(Cl)c1O	44.8%
O=C(COC(=O)c1cc(Cl)ccc1[N+](=O)[O-])NCc1ccc(Cl)cc1Cl	23.5%
Cc1cccc(NC(=S)N(C)Cc2cn(C)c3ccccc23)c1	53.5%
CCCSc1cc(N2CCN(C)CC2)nc(-c2ccc(OC)cc2)n1	91.7%
COc1cc2[nH]c(=O)n(CCC(=O)N3CCC(N4CCCCC4)CC3)c(=O)c2cc1OC	34.3%
CCc1ccccc1NC(=S)N(Cc1ccco1)C(C)c1cccs1 (stereo not given)	27.6%
O=C(Nc1ccccc1Sc1ccccc1)c1ccc(F)cc1	23.3%
CS(=O)(=O)c1nc2ccccc2n1Cc1ccccc1	2.28%
O=C(c1ccc(F)cc1)C(CN1CCOCC1)c1ccccc1 (stereo not given)	70.1%
CCCCc1ccc(NC(=S)NCc2ccccc2OC)cc1	25.6%
Cc1ccc(NC(=S)N(CCCN2CCCC2)Cc2cccn2Cc2ccc(Cl)cc2)cc1C	25.6%
O=C(C1=C[C@H](c2csc3ccccc23)C[C@H](OCc2ccc(CO)cc2)O1)N1CCN(Cc2ccccc2)CC1	37.7%
CC1=NN(C(N)=S)C(=O)C1N=Nc1ccccc1 (stereo not given)	52.9%
O=C(Nc1ccccc1)C1=C[C@@H](c2ccc(C(F)(F)F)cc2)C[C@@H](OCc2ccc(CO)cc2)O1	14.5%
O=C(c1cc2ccccc2o1)N1CCN(c2ccccc2Cl)CC1	52.2%
N#C/C(=C\c1ccccc1[N+](=O)[O-])C(=O)NC1CCCCC1	34.1%
CC1CCC(C(C)C)C(OC(=O)COC(=O)c2cccn2C)C1 (stereo not given)	24.9%
CCCCCCCCOC(=O)CCn1[nH]c(=O)c2ccccc2c1=O	79.1%
S=C(c1ccc(-c2cccc(Cl)c2)o1)N1CCCCC1	22.8%
NNC(=O)c1cccc(COc2ccc(Br)cc2)c1	54%
Cc1cccc(N2C(=O)C(Oc3ccc(Cl)cc3Cl)C2C=O)c1C (stereo not given)	17.9%
CN1CCN(c2ccc(Cl)cc2NC(=O)/C=C/c2ccc(F)cc2)CC1	59.5%

Compound	inhibition
CCCCSc1nnc(CNC(=O)C23CC4CC(CC(C4)C2)C3)n1Cc1ccccc1	-2.99%
C/C=C(/C(=C/C)c1ccc(O)cc1)c1ccc(O)cc1	10.7%
CCn1c(CN2CCN(c3ccc(Cl)cc3)CC2)nc2ccccc21	35.6%
Cc1c(C(=O)N2CCC(C)CC2)sc2ncnc(N(C)c3ccccc3)c12	72%
CCCCn1c(CN2CCN(c3cccc(Cl)c3)CC2)nc2c1c(=O)n(C)c(=O)n2C	27.8%
CCCCc1ccc(-n2c(Cc3cccs3)n[nH]c2=S)cc1	52.7%
O/N=C(\c1ccc(Cl)cc1Cl)c1ncc(C(F)(F)F)cc1Cl	15.9%
CC(C)(C)c1ccc(CNc2ccc([N+](=O)[O-])cn2)cc1	19.2%
O=C1CSC(=NC2CCCCC2)N1	46.9%
CCOC(=O)C(=O)NNc1ccc(C)cc1	58.6%
FC(F)(F)c1ccc(N2CCN(c3cc(-c4ccccc4)nc4ncnn34)CC2)nc1	42.9%
Cc1cccc(-c2ncc(CN3CCCC(CO)(Cc4ccccc4C)C3)cn2)c1 (stereo not given)	46.3%
C(=N\Nc1nc(Nc2ccccc2)nc(N2CCCCC2)n1)/c1ccco1	14.7%
Cc1c(C(=O)Nc2ccccc2[N+](=O)[O-])csc1-c1ccccc1	68.5%
c1ccc(CC2CCN(c3ncnc4sccc34)CC2)cc1	17.6%
CC(=O)N1N=C(c2ccc(C)cc2)OC1c1ccc(Br)cc1 (stereo not given)	-0.36%
COc1ccc(CNC(=O)C2CC(=O)N(c3ccc(OCC(=O)N4C(C)CCCC4C)cc3)C2)cc1 (stereo not given)	-5.68%
Cc1cc(C)c(C)c(OCCCOc2cccc3cccnc23)c1	75.2%
CC(C)(C)c1ccc(S(=O)(=O)N2CCC(c3nc4ccc(Cl)cc4[nH]3)CC2)cc1	31.8%
Cc1nc2ccc(C(=O)NCc3ccc4c(c3)OCO4)cc2s1	55.1%
O=[N+]([O-])c1cccnc1N1CCC(c2cc(-c3ccc(Cl)cc3Cl)n[nH]2)CC1	14.5%
Cc1ccc(CCSc2ccc(C(C)C)cc2)cn1	70.3%

Compound	inhibition
CNC(=S)N/N=C/c1cccc(OCc2ccccc2F)c1	9.92%
COc1cc(CNC(C)(C)CO)cc(Br)c1OCc1ccc(Cl)cc1Cl	89.1%
S=C(NCCc1ccccc1)NCCc1ccccc1	51.9%
CCCCc1ccc(NC(=S)NCc2ccc(OC)cc2)cc1	50.5%
CCN(c1ccccc1)S(=O)(=O)c1cnc[nH]1	2.52%
O=C(NCc1ccco1)C1CCN(C(=O)c2cc3sccc3n2Cc2ccc(Cl)cc2)CC1	20.6%
CCCOc1ccc(-c2csc(N)n2)cc1[N+](=O)[O-]	74.6%
CC1CN(C(=O)N(C)C)CCN1C(=O)N(C)C (stereo not given)	7.32%
COc1ccc(-c2nc3n(c(=O)c2C#N)CCCS3)cc1	-10.4%
CN(C)c1nn(C(=O)Nc2cccc(C(F)(F)F)c2)cc1-c1ccccc1	29.2%
O=C1c2ccccc2NC(c2ccc(Cl)cc2Cl)N1Cc1ccccc1 (stereo not given)	38.9%
CC1CCN(C(=S)c2cn(Cc3ccccc3F)c3ccccc23)CC1	65%
Cc1ccc(S(=O)(=O)Nc2ccccc2C(=O)Nc2nc(-c3ccc(F)cc3)cs2)cc1	64%
Cc1cccc(NC(=S)NCC(C)CSc2ccc(Cl)cc2)c1 (stereo not given)	47.5%
O=S(=O)(NCCC(c1ccc(F)cc1)c1ccco1)c1ccccc1 (stereo not given)	11.8%
CC1=NOC(=O)/C1=C/c1ccc(-c2ccc(Cl)cc2)o1	72.9%
CCCCN(CCCC)C(=S)NC(=O)c1ccccc1Cl	47.3%
CCCCC(CC)C(=O)Oc1ccc(O)c(C(C)(C)C)c1 (stereo not given)	78.7%
Cc1ccc(CNC(=O)C(Cc2ccccc2)NS(=O)(=O)c2ccc(Br)s2)cc1 (stereo not given)	43.6%
Cc1ccc(Sc2ccc(NC(=O)CCl)cc2)c(C)c1	14.9%
CCOC(=O)C1=NN(c2ccccc2)C2(S1)SC(C(C)=O)=C(C)N2c1ccccc1 (stereo not given)	1.57%
Cc1ccc(C(=O)NC(=S)/C=C2\N(C)c3ccccc3C2(C)C)cc1	12.3%

Compound	inhibition
Fc1nc(F)c(F)c(NCCCNc2c(F)c(F)nc(F)c2F)c1F	39.4%
O=C(/C=C/c1ccc(Cl)cc1Cl)NCCSCc1ccccc1	34.6%
Cc1ccccc1CSCC(=O)Nc1ccccc1-c1ccccc1	35.3%
CCOc1cc(C(=O)N(C)Cc2cc3ccccc3[nH]c2=O)cc(OCC)c1OCC	2.19%
CCN(C(=O)c1ccc2c(Cl)c3c(nc2c1)CCC3)c1ccc(C)c(C)c1	81.9%
CCCN(CC(=O)Nc1cccc(Br)c1)CC(=O)Nc1ccc(F)c(F)c1F	34.7%
CC(C1CC1)N(Cc1ccccc1)C(=S)Nc1cccc(C(F)(F)F)c1 (stereo not given)	41.9%
CN1CC(=O)Nc2ccc(F)cc2C1=O	1.89%
S=c1[nH]c(-c2ccc(Cl)cc2)cs1	52.5%
CCOc1ccc(C(c2c(NC(=O)c3ccccc3)sc(C)c2C)N2CCN(C)CC2)cc1 (stereo not given)	28.6%
CCC(C)(C)c1ccc(OCCCC[n+]2cccc(C)c2)c(C(C)(C)CC)c1	97%
c1ccc(-c2nnc(CSc3nnc(-c4ccncc4)n3Cc3ccco3)o2)cc1	0.62%
Cc1nc2c(-c3ccccc3)c(C)nn2c(N)c1-c1ccccc1	65.4%
COc1ccccc1C1(CCNS(=O)(=O)c2ccc(C)cc2)CCOC(C(C)C)C1 (stereo not given)	4.36%
CN(C)c1cc[n+](CC(=O)c2ccc(-c3ccccc3)cc2)cc1	70.7%
COc1ccc(CCNC(=S)Nc2cccc3ccccc23)cc1	35.3%
S=C(NCCc1ccccc1)Nc1ccc(Nc2ccccc2)cc1	58.2%
CCCC[n+]1c(-c2ccc(Cl)cc2Cl)csc1Nc1ccccc1	-1.63%
Nc1c(C(=O)NC2CCCC2)sc2nc(-c3cccs3)ccc12	2.09%
Cc1cc(/C=C\c2ccccc2)nc2ccccc12	38.4%
Cc1nc2cc(C(=O)OCC(=O)NC34CC5CC(CC(C5)C3)C4)ccc2n1-c1ccccc1	-2.64%
CCN(CC)S(=O)(=O)c1cccc(NC(=O)c2ccc(Br)cc2)c1	40.6%

Compound	inhibition
CCCCCCOC1(c2ccccc2)OC(=O)c2ccccc21 (stereo not given)	1.87%
COc1ccc(-c2noc(N(C)CC(=O)Nc3cccc(C(F)(F)F)c3)n2)cc1	34%
CCOc1ccc(NC(=S)NC(C)CCc2ccccc2)cc1 (stereo not given)	57.7%
Cc1ccc(C)c(NC(=S)Nc2cccc3cnccc23)c1	46.1%
O=C(NC12CC3CC(CC(C3)C1)C2)c1ccc(-c2cccc(Cl)c2)o1	28.8%
Cc1ccc(S(=O)(=O)N(Cc2ccccc2)Cc2ccco2)cc1	42.5%
COc1ccc(C(=O)/C(C#N)=N/Nc2ccc([N+](=O)[O-])cc2)cc1	41.6%
Cc1cc(C)nc(NC2=NCC(=O)N2c2ccc3c(c2)OCCO3)n1	-18.4%
COC(=O)[C@@]1(Cc2ccc(OC)cc2)[C@H]2c3cc(C(=O)N4CCCC4)n(Cc4ccc(C)o4)c3C[C@H]2CN1C(=O)c1ccccc1	18%
CC(C)N(Cc1ccccc1)C(=S)NC1CCCCC1	30.5%
CNC(=S)N1CCN(C(c2ccccc2)c2ccccc2)CC1	32.3%
Cc1ccc2nc(N/N=C/c3ccccc3F)nc(-c3ccccc3)c2c1	-0.94%
CCN1/C(=C\c2ccc3cc(C)ccc3[n+]2CC)Sc2cc(C)c(C)cc21	84%
Cc1ccc(S(=O)(=O)n2c3ccc(F)cc3c3nc(C)sc32)cc1	36.1%
COc1cccc(NC(=S)N/N=C2/CCCCc3ccccc32)c1	51%
Cc1ccc(-c2csc(N(CC3CCCO3)C(=O)c3ccco3)n2)cc1 (stereo not given)	7.1%
CC(C)(C)C1C/C(=C/c2ccccn2)C(=O)/C(=C/c2ccccn2)C1 (stereo not given)	32.3%
S=C1NC(c2cccs2)=CC(c2ccc(Br)cc2)N1 (stereo not given)	41.6%
Cc1ccc2nc(Cl)c(/C=N/NC(=O)c3ccccc3O)cc2c1	27.6%
Cc1ccc(N=N/C(=C\O)C(=O)c2ccc(Cl)cc2)cc1	96.8%
CCc1ccc(NC(=S)N2CCCCCCC2)cc1	49.1%
Cc1ccc(NC(=S)N(CCCN2CCCC2)Cc2cccn2Cc2ccc(Cl)cc2)cc1Cl	74.4%
